In the GPR68 mutational scans of Howard et al. (2025):

B1: GPR68, Q15743 (parent)
chain: MGNITADNSSMSCTIDHTIHQTLAPVVYVTVLVVGFPANCLSLYFGYLQIKARNELGVYLCNLTVADLFYICSLPFWLQYVLQHDNWSHGDLSCQVCGILLYENIYISVGFLCCISVDRYLAVAHPFRFHQFRTLKAAVGVSVVIWAKELLTSIYFLMHEEVIEDENQHRVCFEHYPIQAWQRAINYYRFLVGFLFPICLLLASYQGILRAVRRSHGTQKSRKDQIQRLVLSTVVIFLACFLPYHVLLLVRSVWEASCDFAKGVFNAYHFSLLLTSFNCVADPVLYCFVSETTHRDLARLRGACLAFLTCSRTGRAREAYPLGAPEASGKSGAQGEEPELLTKLHPAFQTPNSPGSGGFPTGRLA

Key:
[1] = variants of: B1; assay: cAMP reporter score (Enrich2 score, wild type = 0); higher = more signal; HEK293T, FACS bins
[2] = variants of: B1; assay: surface expression score (Enrich2 score, wild type = 0); higher = more signal; HEK293T, FACS bins

Variant | cAMP reporter score ([1]; pH 5.5) | cAMP reporter score ([1]; pH 6) | cAMP reporter score ([1]; pH 6, modulator: ogerin) | cAMP reporter score ([1]; pH 6.5, modulator: ogerin) | surface expression score [2]
V250I | 0.536 | 0.234 | 0.5 | 0.225 | 0.073
V250K | -1.05 | -0.656 | -1.2 | -0.329 | -2.44
V250L | -0.575 | -1.5 | -0.088 | -0.928 | 0.338
V250M | 0.314 | -1.51 | 0.528 | -0.84 | -0.439
V250N | -0.394 | – | -2.13 | -3.82 | -2.71
V250P | -1.71 | -1.22 | -1.01 | -0.096 | -2.85
V250Q | -1.49 | -1.26 | -1.15 | -0.862 | -2.93
V250R | -2.04 | -1.68 | -2.06 | -0.386 | -3.35
V250S | -0.656 | – | 0.219 | -1.64 | -0.595
V250T | 1.45 | 0.095 | 1.49 | 1.07 | 0.443
V250W | 0.812 | -0.444 | -1.02 | 0.021 | 0.95
V250Y | 0.412 | – | -0.003 | -0.928 | -0.079
V250_R251del | -1.35 | -1.36 | -1.32 | -1.53 | -2.67
V250_R251insGS | -1.28 | -1.61 | -1.81 | -0.889 | -2.89
V250del | -0.313 | 0.623 | – | -0.741 | -2.43
R251_S252insG | -0.418 | – | -0.678 | – | –
R251_S252insGS | -1.36 | -0.979 | -1.07 | -1.45 | -1.62
R251_V253del | -1.65 | – | -1.53 | -0.761 | -3.02
S252_V253insG | -0.75 | -1.42 | -0.554 | -0.819 | -0.426
V253_E255del | -1.11 | -1.73 | -1.61 | -0.906 | -2.07
V253del | 0.753 | -0.578 | -0.118 | -0.127 | -0.341

Variant | cAMP reporter score ([1]; pH 5.5) | cAMP reporter score ([1]; pH 6) | cAMP reporter score ([1]; pH 6, modulator: ogerin) | cAMP reporter score ([1]; pH 6.5, modulator: ogerin) | surface expression score [2]
W254_E255del | -1.62 | -1.32 | -1.28 | -1.12 | -1.31
E255_A256del | -1.32 | -1.27 | -1.34 | -1.37 | -1.91
E255_S257del | -1.61 | -0.651 | -2.04 | -0.785 | -1.72
A256C | 0.111 | -0.621 | 0.184 | -1.19 | -0.482
A256D | 0.57 | 1.68 | 0.437 | 2.06 | 0.642
A256E | 0.801 | 1.91 | 1.29 | 2.6 | 1.21
A256F | 0.269 | 0.519 | 0.913 | 1.4 | -0.147
A256G | 0.795 | 1.52 | 0.343 | 0.791 | 1.65
A256H | 0.495 | 1.57 | 0.606 | 1.9 | 0.584
A256I | 0.242 | -0.093 | 0.085 | -0.429 | -0.706
A256K | 0.358 | 2.46 | 1.13 | 2.09 | 1.29
A256L | -0.831 | – | 0.6 | 0.747 | -0.434
A256M | 0.302 | 1.74 | -0.68 | 1.27 | 0.214
A256N | 1.16 | 1.78 | 1.21 | 2.15 | 1.6
A256P | -0.41 | -0.546 | -0.229 | 0.197 | 3.46
A256Q | 0.185 | 0.945 | 1.41 | 1.55 | 0.247
A256R | 0.916 | 1.22 | 0.988 | – | 1.21
A256S | 0.919 | 0.273 | 1.67 | 1.46 | 1.77
A256T | -0.226 | -0.051 | -0.206 | 0.564 | -0.053
A256V | -0.786 | -0.516 | -0.546 | -0.653 | -0.601
A256W | 1.44 | – | 0.392 | -0.427 | –

Variant | cAMP reporter score ([1]; pH 5.5) | cAMP reporter score ([1]; pH 6) | cAMP reporter score ([1]; pH 6, modulator: ogerin) | cAMP reporter score ([1]; pH 6.5, modulator: ogerin) | surface expression score [2]
A256Y | 1.12 | 2.26 | 1.64 | 2.13 | 0.623
A256_C258del | -1.01 | -1.08 | -0.71 | 0.067 | -1.86
A256_S257insGS | -0.754 | -0.939 | -1.32 | -0.705 | 1.77
S257_C258insG | -2.37 | -1.3 | -1.9 | -1.4 | 0.643
S257_C258insGS | -0.386 | -0.677 | -0.916 | -1.2 | 1.95
S257_D259del | -1.37 | -1.1 | -1.48 | -1.25 | -2.39
S257del | -1.68 | -0.235 | -1.59 | -1.03 | -1.28
C258_D259del | -0.98 | -0.645 | -1.38 | -1.11 | -1.99
C258_D259insG | -0.946 | -0.921 | -1.08 | -0.679 | 1.49
C258_D259insGS | -2.16 | -1.4 | -1.72 | -0.714 | 0.251
C258_D259insGSG | -1.29 | -0.613 | -0.739 | -0.391 | 1.85
D259_F260del | -1.12 | -0.751 | -1.29 | -0.458 | 1.4
D259_F260insG | -1.17 | -1.28 | -1.25 | -1.51 | 0.665
D259del | -1.85 | -0.773 | -1.66 | -0.632 | -1.39
F260E | -0.01 | -0.18 | 0.117 | -0.193 | 0.417
F260G | 0.141 | -0.259 | 0.255 | -0.501 | -0.01
F260H | -0.344 | 0.195 | -0.179 | 0.32 | 0.324
F260I | -0.736 | -0.571 | -0.849 | -0.788 | 0.2
F260K | 0.267 | -0.799 | -0.826 | -0.73 | -0.611
F260L | 0.018 | -0.517 | -0.422 | -0.723 | 0.265

The least precise scores are not listed. The source holds two more conditions with little spread; they are left out. In variant names, del marks residues removed and ins residues inserted between the two positions. For some of these results: The data file names ogerin without a concentration.
